The supplement of paper PMC8728848
The other results are listed elsewhere or left out.

Key:
Assay in all cases: glycan array binding signal (z-score within array); higher = stronger binding
Settings in all cases: glycan notation: IUPAC condensed, linker removed
[1] = molecular target: Man(a1-6)Man(b1-4)GlcNAc(b1-4)GlcNAc
Summary of the method: (§1)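 Glycan array data were curated from 3228 arrays in the Consortium for Functional Glycomics database and kept only where the protein sequence was available. Glycan names were converted to IUPAC-condensed notation, and columns mapping to the same glycan were averaged. The binding signal is a within-array Z-score, averaged across arrays of the same protein sequence at different concentrations or buffers and across linkers. Negative Z-scores can be read as non-binding.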

Man(b1-4)GlcNAc = molecular target: Man(b1-4)GlcNAc
Summary of the method: as §1

[2] = molecular target: Man(b1-4)Man(b1-4)Man(b1-4)Man
Summary of the method: as §1

[3] = molecular target: Man(b1-4)Man(b1-4)Man(b1-4)Man(b1-4)Man
Summary of the method: as §1

[4] = molecular target: Man(b1-4)Man(b1-4)Man(b1-4)Man(b1-4)Man(b1-4)Man
Summary of the method: as §1

[5] = molecular target: Man6P(a1-3)Man(a1-3)Man(a1-3)Man(a1-2)Man
Summary of the method: as §1

Neu(a2-3)Gal(b1-4)Glc = molecular target: Neu(a2-3)Gal(b1-4)Glc
Summary of the method: as §1

[6] = molecular target: Neu(a2-3)Gal(b1-4)GlcNAc(b1-3)Gal(b1-4)[Fuc(a1-3)]GlcNAc(b1-3)Gal(b1-4)Glc
Summary of the method: as §1

[7] = molecular target: Neu(a2-3)Gal(b1-4)GlcNAc6S(b1-3)Gal(b1-4)Glc
Summary of the method: as §1

[8] = molecular target: Neu(a2-3)Gal(b1-4)[Fuc(a1-3)]GlcNAc(b1-3)Gal(b1-4)Glc
Summary of the method: as §1

[9] = molecular target: Neu(a2-3)Gal(b1-4)[Fuc(a1-3)]GlcNAc6S(b1-3)Gal(b1-4)Glc
Summary of the method: as §1

[10] = molecular target: Neu(a2-3)Gal6S(b1-4)[Fuc(a1-3)]GlcN(b1-3)Gal(b1-4)Glc
Summary of the method: as §1

Neu(a2-6)Gal(b1-4)Glc = molecular target: Neu(a2-6)Gal(b1-4)Glc
Summary of the method: as §1

[11] = molecular target: Neu4Ac5Ac(a2-3)Gal(b1-4)Glc
Summary of the method: as §1

Neu5Ac(a2-3)Gal = molecular target: Neu5Ac(a2-3)Gal
Summary of the method: as §1

[12] = molecular target: Neu5Ac(a2-3)Gal(b1-3)GalNAc(b1-4)Gal(b1-4)Glc
Summary of the method: as §1

[13] = molecular target: Neu5Ac(a2-3)Gal(b1-3)GalNAc(b1-4)[Neu5Ac(a2-3)]Gal(b1-4)Glc
Summary of the method: as §1

[14] = molecular target: Neu5Ac(a2-3)Gal(b1-3)GalNAc(b1-4)[Neu5Ac(a2-8)Neu5Ac(a2-3)]Gal(b1-4)Glc
Summary of the method: as §1

[15] = molecular target: Neu5Ac(a2-3)Gal(b1-3)GlcNAc(b1-3)Gal(b1-4)Glc
Summary of the method: as §1

[16] = molecular target: Neu5Ac(a2-3)Gal(b1-3)GlcNAc(b1-3)[Fuc(a1-3)[Gal(b1-4)]GlcNAc(b1-6)]Gal(b1-4)Glc
Summary of the method: as §1

[17] = molecular target: Neu5Ac(a2-3)Gal(b1-3)[Fuc(a1-4)]GlcNAc
Summary of the method: as §1

[18] = molecular target: Neu5Ac(a2-3)Gal(b1-3)[Fuc(a1-4)]GlcNAc(b1-3)Gal(b1-4)Glc
Summary of the method: as §1

[19] = molecular target: Neu5Ac(a2-3)Gal(b1-3)[Neu5Ac(a2-6)]GalNAc
Summary of the method: as §1

[20] = molecular target: Neu5Ac(a2-3)Gal(b1-3)[Neu5Ac(a2-6)]GlcNAc(b1-3)Gal(b1-4)Glc
Summary of the method: as §1

Neu5Ac(a2-3)Gal(b1-4)Glc = molecular target: Neu5Ac(a2-3)Gal(b1-4)Glc
Summary of the method: as §1

[21] = molecular target: Neu5Ac(a2-3)Gal(b1-4)GlcNAc
Summary of the method: as §1

[22] = molecular target: Neu5Ac(a2-3)Gal(b1-4)GlcNAc(b1-2)Man(a1-3)[Neu5Ac(a2-3)Gal(b1-4)GlcNAc(b1-2)Man(a1-6)]Man(b1-4)GlcNAc(b1-4)[Fuc(a1-6)]GlcNAc
Summary of the method: as §1

[23] = molecular target: Neu5Ac(a2-3)Gal(b1-4)GlcNAc(b1-3)Gal(b1-4)Glc
Summary of the method: as §1

[24] = molecular target: Neu5Ac(a2-3)Gal(b1-4)GlcNAc6S(b1-3)Gal6S(b1-3)GlcNAc6S
Summary of the method: as §1

[25] = molecular target: Neu5Ac(a2-3)Gal(b1-4)[Fuc(a1-3)]GlcNAc(b1-3)Gal
Summary of the method: as §1

[26] = molecular target: Neu5Ac(a2-3)Gal(b1-4)[Fuc(a1-3)]GlcNAc(b1-3)Gal(b1-4)Glc
Summary of the method: as §1

[27] = molecular target: Neu5Ac(a2-3)Gal(b1-4)[Fuc(a1-3)]GlcNAc(b1-3)Gal(b1-4)[Fuc(a1-3)]GlcNAc(b1-3)Gal(b1-4)Glc
Summary of the method: as §1

[28] = molecular target: Neu5Ac(a2-3)Gal(b1-4)[Fuc(a1-3)]GlcNAc6S(b1-3)Gal(b1-4)Glc
Summary of the method: as §1

[29] = molecular target: Neu5Ac(a2-3)Gal(b1-4)[Fuc(a1-3)]GlcNAc6S(b1-3)Gal6S(b1-3)GlcNAc6S
Summary of the method: as §1

[30] = molecular target: Neu5Ac(a2-3)Gal6S(b1-4)[Fuc(a1-3)]GlcNAc(b1-3)Gal(b1-4)Glc
Summary of the method: as §1

[31] = molecular target: Neu5Ac(a2-3)Gal6S(b1-4)[Fuc(a1-3)]GlcNAc6S(b1-3)Gal(b1-4)Glc
Summary of the method: as §1

[32] = molecular target: Neu5Ac(a2-3)[GalNAc(b1-4)]Gal(b1-3)GalNAc(b1-4)[Neu5Ac(a2-3)]Gal(b1-4)Glc
Summary of the method: as §1

[33] = molecular target: Neu5Ac(a2-3)[GalNAc(b1-4)]Gal(b1-4)Glc
Summary of the method: as §1

B1: Dectin-1 (Mus musculus), Q6QLQ4 (protein)
chain: GHNSGRNPEEKDNFLSRNKENHKPTESSLDEKVAPSKASQTTGGFSQPCLPNWIMHGKSCYLFSFSGNSWYGSKRHCSQLGAHLLKIDNSKEFEFIESQTSSHRINAFWIGLSRNQSEGPWFWEDGSAFFPNSFQVRNTAPQESLLHNCVWIHGSEVYNQICNTSSYSICEKEL
[1]
  glycan array binding signal (z-score): -0.091
Man(b1-4)GlcNAc
  glycan array binding signal (z-score): -0.086
[2]
  glycan array binding signal (z-score): -0.11
[3]
  glycan array binding signal (z-score): -0.113
[4]
  glycan array binding signal (z-score): -0.08
[5]
  glycan array binding signal (z-score): -0.054
Neu(a2-3)Gal(b1-4)Glc
  glycan array binding signal (z-score): -0.072
[6]
  glycan array binding signal (z-score): -0.042
[7]
  glycan array binding signal (z-score): -0.083
[8]
  glycan array binding signal (z-score): -0.091
[9]
  glycan array binding signal (z-score): -0.075
[10]
  glycan array binding signal (z-score): -0.049
Neu(a2-6)Gal(b1-4)Glc
  glycan array binding signal (z-score): -0.069
[11]
  glycan array binding signal (z-score): -0.079
Neu5Ac(a2-3)Gal
  glycan array binding signal (z-score): -0.091
[12]
  glycan array binding signal (z-score): -0.077
[13]
  glycan array binding signal (z-score): -0.039
[14]
  glycan array binding signal (z-score): -0.041
[15]
  glycan array binding signal (z-score): -0.091
[16]
  glycan array binding signal (z-score): -0.09
[17]
  glycan array binding signal (z-score): -0.077
[18]
  glycan array binding signal (z-score): -0.083
[19]
  glycan array binding signal (z-score): -0.069
[20]
  glycan array binding signal (z-score): -0.091
Neu5Ac(a2-3)Gal(b1-4)Glc
  glycan array binding signal (z-score): -0.017
[21]
  glycan array binding signal (z-score): -0.09
[22]
  glycan array binding signal (z-score): -0.091
[23]
  glycan array binding signal (z-score): -0.088
[24]
  glycan array binding signal (z-score): -0.054
[25]
  glycan array binding signal (z-score): -0.091
[26]
  glycan array binding signal (z-score): -0.083
[27]
  glycan array binding signal (z-score): -0.057
[28]
  glycan array binding signal (z-score): -0.042
[29]
  glycan array binding signal (z-score): -0.067
[30]
  glycan array binding signal (z-score): -0.091
[31]
  glycan array binding signal (z-score): -0.091
[32]
  glycan array binding signal (z-score): -0.091
[33]
  glycan array binding signal (z-score): -0.091
